In US20050203135A1, “Antagonists for treatment of CD/11CD18 adhesion receptor mediated disorders” (Genentech, Inc., priority 1998, published 2005) one finds IC50 data, which are given here for 46 compounds.

SMILES strings stand for the structures.

The target in this experiment is CD11a/CD18-ICAM-1 interaction (recombinant human LFA-1 / human 5 domain ICAM-Ig) (Homo sapiens, UniProt P05107+P20701). The following applies: PLM2(μM), PLM2 antibody capture format of LFA/ICAM assay.
Regarding `NC(=O)C[C@H](NC(=O)c1ccc(C(=O)NCc2cccc3occc23)cc1Cl)C(=O)O` [Example 297], the IC50 (as a rule, the concentration that gives 50% inhibition) was found to be 0.028 µM. With `C[C@H](NC(=O)c1ccc(NC(=O)CNC(=O)c2cccs2)cc1Cl)C(=O)O` [Example 257] the figure was 0.042 µM; with `NS(=O)(=O)C[C@H](NC(=O)c1ccc(C(=O)NCc2cccc(O)c2)cc1Cl)C(=O)O` [Example 369], 0.019 µM. With `O=C(NCc1cccc(O)c1)c1ccc(C(=O)NC2(C(=O)O)CC2)c(Cl)c1` [Example 359], the IC50 came out at 0.016 µM.

For the compound `C=CCNC(=O)C[C@H](NC(=O)c1ccc(C(=O)NCc2cccc(O)c2)cc1Cl)C(=O)O` [Example 427], the IC50 amounted to 0.044 µM. With `CCCC(=O)NCC(=O)NCC[C@H](NC(=O)c1ccc(C(=O)NCc2cccc(O)c2)cc1Cl)C(=O)O` [Example 211] the figure was 0.019 µM; with `COc1cccc(C(NC(=O)c2cccs2)C(=O)Nc2ccc(C(=O)N[C@@H](C)C(=O)O)c(Cl)c2)c1` (stereo partly shown) [Example 269], 0.046 µM; with `NC(=O)C[C@H](NC(=O)c1ccc(C(=O)NCc2cccc(O)c2)cc1[N+](=O)[O-])C(=O)O` [Example 379], 0.01 µM. With `CCCNC(=O)OCCC(NC(=O)c1ccc(C(=O)NCc2cccc(O)c2)cc1Cl)C(=O)O` (stereo not shown) [Example 444] the figure was 0.041 µM; with `CCCC(=O)N1CCCC(C(=O)NCCC[C@H](NC(=O)c2ccc(C(=O)NCc3cccc(O)c3)cc2Cl)C(=O)O)C1` (stereo partly shown) [Example 165], 0.015 µM; with `CCCC(=O)NCc1ccc(C(=O)NC[C@H](NC(=O)c2ccc(C(=O)NCc3cccc(O)c3)cc2Cl)C(=O)O)cc1` [Example 156], 0.009 µM. With `CC(=O)N1CCC(C(=O)NCC[C@H](NC(=O)c2ccc(C(=O)NCc3cccc(O)c3)cc2Cl)C(=O)O)CC1` [Example 195] the figure was 0.016 µM; with `CCCC(=O)NCCC(=O)NCC[C@H](NC(=O)c1ccc(C(=O)NCc2cccc(O)c2)cc1Cl)C(=O)O` [Example 207], 0.062 µM. Take `NCCCCC(NC(=O)c1ccc(C(=O)NCc2cccc(O)c2)c2ccsc12)C(=O)O` (stereo not shown) [Example 383]: the IC50 was 0.06 µM. With `NC(=O)CC(NC(=O)c1ccc(C(=O)NCc2cccc(O)c2)c2ccsc12)C(=O)O` (stereo not shown) [Example 381] the figure was 0.035 µM; with `CC(=O)NCC(=O)NCCCC[C@H](NC(=O)c1ccc(C(=O)NCc2cccc(O)c2)cc1Cl)C(=O)O` [Example 230], 0.016 µM. With `CC(=O)N1CCCC(C(=O)NCCCC[C@H](NC(=O)c2ccc(C(=O)NCc3cccc(O)c3)cc2Cl)C(=O)O)C1` (stereo partly shown) [Example 216] the figure was 0.022 µM; with `O=C(NCc1cccc(O)c1)c1ccc(C(=O)N[C@@H](CNCc2ccco2)C(=O)O)c(Cl)c1` [Example 293], 0.083 µM; with `CC(NC(=O)OCCC(NC(=O)c1ccc(C(=O)NCc2cccc(O)c2)cc1Cl)C(=O)O)c1ccccc1` (stereo not shown) [Example 450], 0.061 µM. As for `CC(=O)N1CCCCC1C(=O)NCCCC[C@H](NC(=O)c1ccc(C(=O)NCc2cccc(O)c2)cc1Cl)C(=O)O` (stereo partly shown) [Example 222], the IC50 stood at 0.021 µM.

Regarding `O=C(NCc1cccc(O)c1)c1ccc(C(=O)N[C@@H](CCCCNCc2ccco2)C(=O)O)c(Cl)c1` [Example 291], the IC50 came to 0.007 µM.

Take `CCC(=O)N1CCCC(C(=O)NCC[C@H](NC(=O)c2ccc(C(=O)NCc3cccc(O)c3)cc2Cl)C(=O)O)C1` (stereo partly shown) [Example 189]: the IC50 worked out at 0.018 µM. As to `CCOC(=O)NCCC[C@H](NC(=O)c1ccc(C(=O)NCc2cccc(O)c2)cc1Cl)C(=O)O` [Example 331], the IC50 worked out at 0.027 µM.

In the case of `CC(=O)NCC(=O)NCCC[C@H](NC(=O)c1ccc(C(=O)NCc2cccc(O)c2)cc1Cl)C(=O)O` [Example 187], the IC50 is 0.017 µM.

Regarding `CCC(=O)NCc1cccc(C(=O)NCC[C@H](NC(=O)c2ccc(C(=O)NCc3cccc(O)c3)cc2Cl)C(=O)O)c1` [Example 198], the IC50 was 0.019 µM.

In the case of `CCC(NC(=O)c1ccc(C(=O)N[C@@H](CC(N)=O)C(=O)O)c(Cl)c1)c1cccc(O)c1` (stereo partly shown) [Example 365], the IC50 stood at 0.024 µM.

With `CC(CC(=O)NCc1cc(Cl)c(C(=O)N[C@@H](CNC(=O)c2cccs2)C(=O)O)c(Cl)c1)c1ccco1` (stereo partly shown) [Example 300], the IC50 came to 0.074 µM. With `CCCC(=O)N1CCCC(C(=O)NCC[C@H](NC(=O)c2ccc(C(=O)NCc3cccc(O)c3)cc2Cl)C(=O)O)C1` (stereo partly shown) [Example 190] the figure was 0.016 µM; with `CCC(=O)NCc1cccc(C(=O)NCCC[C@H](NC(=O)c2ccc(C(=O)NCc3cccc(O)c3)cc2Cl)C(=O)O)c1` [Example 173], 0.01 µM. Consider `O=C(CCc1ccco1)NCc1cc(Cl)c(C(=O)N[C@@H](CNC(=O)c2cccs2)C(=O)O)c(Cl)c1` [Example 298], for which the 50% inhibitory concentration (IC50) was 0.009 µM. With `CC(=O)NCCC(=O)NCC[C@H](NC(=O)c1ccc(C(=O)NCc2cccc(O)c2)cc1Cl)C(=O)O` [Example 208] the figure was 0.021 µM. Turning to `NC(=O)C[C@H](NC(=O)c1c(Cl)cc(CCC(O)c2cccc(O)c2)cc1Cl)C(=O)O` (stereo partly shown) [Example 393], the concentration for half-maximal inhibition (IC50) is 0.003 µM. With `CC(=O)NCC(=O)NCC[C@H](NC(=O)c1ccc(C(=O)NCc2cccc(O)c2)cc1Cl)C(=O)O` [Example 212] the figure was 0.016 µM. With `CC(NC(=O)c1c(Cl)cc(CNC(=O)C=Cc2ccco2)cc1Cl)C(=O)O` (stereo not shown) [Example 273] the figure was 0.016 µM; with `CCCC(=O)NCc1ccc(C(=O)NCCC[C@H](NC(=O)c2ccc(C(=O)NCc3cccc(O)c3)cc2Cl)C(=O)O)cc1` [Example 178], 0.011 µM; with `CCC(=O)NCC(=O)NCCC[C@H](NC(=O)c1ccc(C(=O)NCc2cccc(O)c2)cc1Cl)C(=O)O` [Example 185], 0.016 µM. Consider `NC(=O)C[C@H](NC(=O)c1ccc(C(=O)N[C@H](CO)C(=O)Nc2cccc(O)c2)cc1Cl)C(=O)O` [Example 272], for which the IC50 was found to be 0.08 µM. `Cc1cc(CNC(=O)C=Cc2cccs2)cc(C)c1C(=O)NC(CCCCN)C(=O)O` (stereo not shown) [Example 289]: the half-inhibitory concentration (IC50) came out at 0.074 µM. With `CC(C)OC(=O)NC[C@H](NC(=O)c1ccc(C(=O)NCc2cccc(O)c2)cc1Cl)C(=O)O` [Example 233] the figure was 0.001 µM; with `CC(=O)NCc1cccc(C(=O)NC[C@H](NC(=O)c2ccc(C(=O)NCc3cccc(O)c3)cc2Cl)C(=O)O)c1` [Example 153], 0.003 µM. With `O=C(NCc1cccc(O)c1)c1ccc(C(=O)N[C@@H](CCCNC(=O)C2CCCCN2)C(=O)O)c(Cl)c1` (stereo partly shown) [Example 172], the IC50 amounted to 0.037 µM.

For the compound `CCC(=O)NCc1ccc(C(=O)NCC[C@H](NC(=O)c2ccc(C(=O)NCc3cccc(O)c3)cc2Cl)C(=O)O)cc1` [Example 202], the IC50 stood at 0.023 µM. As for `CC(=O)NCCC(=O)NCCC[C@H](NC(=O)c1ccc(C(=O)NCc2cccc(O)c2)cc1Cl)C(=O)O` [Example 183], the IC50 was 0.013 µM. With `CC(=O)N1CCC(C(=O)NCCCC[C@H](NC(=O)c2ccc(C(=O)NCc3cccc(O)c3)cc2Cl)C(=O)O)CC1` [Example 220] the figure was 0.016 µM; with `CCCC(=O)N1CCCC(C(=O)NCCCC[C@H](NC(=O)c2ccc(C(=O)NCc3cccc(O)c3)cc2Cl)C(=O)O)C1` (stereo partly shown) [Example 215], 0.027 µM. Take `CCC(=O)N1CCC(C(=O)NCCCC[C@H](NC(=O)c2ccc(C(=O)NCc3cccc(O)c3)cc2Cl)C(=O)O)CC1` [Example 218]: the IC50 is 0.018 µM.
